This is an account of results in article PMC4336329 (PLoS ONE, 2015).

SMILES strings stand for the structures. Screen size: about 310,000 compounds; about 14,000 (4.5%) showed an effect of 50% or more. The effect is printed as a negative number. This is one part of the list.
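Also: peak tail current of the secondary pulse compared with the same well before compound.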

The test deals with human ether-à-go-go-related gene (hERG) potassium channel (human, UniProt Q12809). The test can be described thus: primary screen, population patch clamp on CHO cells stably expressing hERG.
human ether-à-go-go-related gene (hERG) potassium channel, sequence (Q12809 whole entry, looked up): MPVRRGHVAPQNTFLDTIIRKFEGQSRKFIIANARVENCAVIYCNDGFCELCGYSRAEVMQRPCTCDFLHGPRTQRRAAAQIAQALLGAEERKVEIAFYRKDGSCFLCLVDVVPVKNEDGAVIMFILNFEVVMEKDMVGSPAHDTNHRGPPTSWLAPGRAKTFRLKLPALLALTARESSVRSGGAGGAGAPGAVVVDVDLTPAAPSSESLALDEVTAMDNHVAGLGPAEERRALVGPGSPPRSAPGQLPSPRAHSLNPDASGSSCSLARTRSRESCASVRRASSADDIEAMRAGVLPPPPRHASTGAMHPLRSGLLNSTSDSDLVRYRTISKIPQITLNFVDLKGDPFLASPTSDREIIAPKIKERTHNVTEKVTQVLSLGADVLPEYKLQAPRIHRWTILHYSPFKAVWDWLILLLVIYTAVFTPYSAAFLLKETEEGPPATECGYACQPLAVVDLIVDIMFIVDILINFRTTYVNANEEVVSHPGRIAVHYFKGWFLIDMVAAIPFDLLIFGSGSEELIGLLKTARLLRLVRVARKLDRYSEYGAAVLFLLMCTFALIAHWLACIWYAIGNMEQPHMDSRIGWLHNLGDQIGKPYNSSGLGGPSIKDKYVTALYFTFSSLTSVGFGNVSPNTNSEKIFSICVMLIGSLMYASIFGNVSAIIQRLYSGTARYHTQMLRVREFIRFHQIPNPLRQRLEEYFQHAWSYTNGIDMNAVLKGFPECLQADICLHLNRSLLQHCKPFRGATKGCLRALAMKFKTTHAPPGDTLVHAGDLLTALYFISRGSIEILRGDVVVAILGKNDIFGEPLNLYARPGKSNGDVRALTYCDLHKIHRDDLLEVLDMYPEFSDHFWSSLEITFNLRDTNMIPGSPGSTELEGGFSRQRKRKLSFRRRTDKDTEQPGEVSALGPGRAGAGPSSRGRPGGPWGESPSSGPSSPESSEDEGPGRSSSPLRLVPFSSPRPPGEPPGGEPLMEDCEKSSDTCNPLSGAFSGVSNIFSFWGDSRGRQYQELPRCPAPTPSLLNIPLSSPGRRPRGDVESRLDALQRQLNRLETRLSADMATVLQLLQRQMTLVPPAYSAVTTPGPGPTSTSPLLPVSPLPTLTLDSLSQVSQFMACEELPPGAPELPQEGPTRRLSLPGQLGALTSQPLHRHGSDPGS
Regarding `CCn1c(CC(=O)Nc2ccccc2)nnc1SCC(=O)Nc1nncs1`, the “hERG current change (%, negative = inhibition) at 10uM” value is 22.7%.
In the case of `Cc1nc(Cl)sc1C(=O)Nc1ccccc1`, the “hERG current change (%, negative = inhibition) at 10uM” value came out at 17.2%.
As to `COc1ccc(/C=N/Nc2nc(C)cc(=O)[nH]2)cc1OC`, the “hERG current change (%, negative = inhibition) at 10uM” value is on record as 14.7%.
Consider `Cc1cc(C)c2c(N)c(C(=O)N3CCN(c4ncccn4)CC3)sc2n1`, for which the “hERG current change (%, negative = inhibition) at 10uM” value is -2.32%.
For `CCOc1ccc(NC(=O)CN2CCN(CC(=O)c3ccc(OC)c(OC)c3)CC2)cc1`, the “hERG current change (%, negative = inhibition) at 10uM” value is listed as -84.4%.
On to `CC1CN(C(=S)NC(=O)c2ccco2)CC(C)O1` (stereo not shown), for which the “hERG current change (%, negative = inhibition) at 10uM” value stood at 22.3%.
For `COC(=O)Cc1[nH]n(-c2nc3ccccc3s2)c(=O)c1C(C)=O`, the “hERG current change (%, negative = inhibition) at 10uM” value turned out to be 21.6%.
Take `Cc1ccc(NC(=O)CN(C)CC(=O)Nc2ccc(N3CCOCC3)cc2)c(C)c1`: the “hERG current change (%, negative = inhibition) at 10uM” value is listed as -18.4%.
As for `CCOC(=O)C1(CCOc2ccccc2)CCN(C(=O)c2cncs2)CC1`, the “hERG current change (%, negative = inhibition) at 10uM” value is -70.7%.
As for `CC(=O)SC(C)CC(=O)Nc1ccccc1` (stereo not shown), the “hERG current change (%, negative = inhibition) at 10uM” value stood at 7.33%.
The value for `COc1ccc(N2CCN(C(CNC(=O)C(=O)NCCCn3ccnc3)c3cccnc3)CC2)cc1` (stereo not shown) was -7.21%; that for `CC(C)N1CCC(N2CCN(C/C=C/c3ccc(F)cc3)CC2CCO)CC1` (stereo not shown) was -6.87%.
Turning to `CC(C)OC(=O)c1c2nc3ccccc3nc2n2c1[nH]c(=O)c1ccccc12`, the “hERG current change (%, negative = inhibition) at 10uM” value is reported as 5.58%.
As for `O=c1cc(Nc2ccc3c(c2)OCCO3)[nH]c(=O)n1-c1ccc(Cl)cc1`, the “hERG current change (%, negative = inhibition) at 10uM” value is reported as -0.327%.
Turning to `O=C(c1ccc(F)cc1)C1CCN(Cc2ccc(F)cc2)CC1`, the “hERG current change (%, negative = inhibition) at 10uM” value was -47.7%.
The value for `Cc1cc(C(=O)CSc2n[nH]c(N)n2)c(C)n1-c1ccccc1` was -13.8%; that for `Clc1ccc2nc(N3CCCCC3)[nH]c2c1` was -26.9%.
With `Cc1nc(SCC(=O)Nc2ccccc2C(F)(F)F)c2c(=O)n(C)c(=O)n(C)c2n1` the figure was -2.58%; with `C/C(=N\NC(=O)c1cc(-c2ccco2)nc2ccccc12)c1cccnc1`, -5.33%; with `c1cc(OCCCN2CCCCC2)ccc1CN1CCCCC1`, 14.1%.
On to `CC(=O)c1c(C)[nH]c(C(=O)OCc2nc3ccsc3c(=O)[nH]2)c1C`, for which the “hERG current change (%, negative = inhibition) at 10uM” value was -13.6%.
With `COc1ccc(N2CCN(C(=O)COC(=O)/C=C/c3ccc(C(F)(F)F)cc3)CC2)cc1`, the “hERG current change (%, negative = inhibition) at 10uM” value is listed as -7.24%.
As for `COc1ccc(NC(=O)CC2Sc3ncnn3C2=O)cc1` (stereo not shown), the “hERG current change (%, negative = inhibition) at 10uM” value came out at 13.8%.
Take `CCOc1ccc(NC(=O)CSc2nc3ccccc3nc2N2CCCC2)cc1`: the “hERG current change (%, negative = inhibition) at 10uM” value is listed as -39.3%.
For `Cc1ccc(-c2nnc(N(C)C(=O)c3cccnc3)s2)cc1`, the “hERG current change (%, negative = inhibition) at 10uM” value is -17.4%.
For `CC(c1ccccc1)N1CCn2c(nc3cc(NC(=O)NC4CCCCC4)ccc32)C1` (stereo not shown), the “hERG current change (%, negative = inhibition) at 10uM” value is recorded as -39.2%.
For the compound `O=C(O)C(Cc1c[nH]c2ccccc12)N1CCS(=O)(=O)CC1` (stereo not shown), the “hERG current change (%, negative = inhibition) at 10uM” value turned out to be 16.3%.
As to `Cc1c(Cc2ccccc2)c(=O)oc2cc(OCc3nn[nH]n3)ccc12`, the “hERG current change (%, negative = inhibition) at 10uM” value was -1.62%.
Turning to `O=c1c2oc3ccccc3c2ncn1Cc1ccc(F)cc1`, the “hERG current change (%, negative = inhibition) at 10uM” value was determined as 18.9%.
The value for `CC1CCCN(S(=O)(=O)c2ccc(C(=O)Nc3nnc(-c4ccco4)o3)cc2)C1` (stereo not shown) was -9.05%; that for `O=C(Nc1ccccc1)c1cc(S(=O)(=O)N2CCCCC2)ccc1N1CCOCC1` was 1.08%.
With `O=C(Nc1ccccc1)/C(=C/c1ccc(O)cc1)NC(=O)c1ccco1`, the “hERG current change (%, negative = inhibition) at 10uM” value is -3.7%.
As for `Cc1ccc(NC(=O)CSc2nnc(-c3ccccc3Br)o2)cc1C`, the “hERG current change (%, negative = inhibition) at 10uM” value is -7.67%.
As to `O.c1ccc(-c2cc(-c3nc4ccccc4[nH]3)c3ccccc3n2)cc1`, the “hERG current change (%, negative = inhibition) at 10uM” value came out at 14.4%.
For the compound `O=C(Nc1ccc(F)cc1)c1ccc(CSc2ccc(Cl)cc2)o1`, the “hERG current change (%, negative = inhibition) at 10uM” value was determined as 7.38%.
With `COc1ccc(C(=O)NNC(=O)CSc2nnc(-c3ccc(O)cc3)n2C)cc1` the figure was 5.16%; with `COc1ccc(CCNC(=O)c2cc(-c3ccco3)nc3ccccc23)cc1`, 2.98%.
On to `Cn1c(=O)n(C)c2cc(S(=O)(=O)NCc3ccco3)ccc21`, for which the “hERG current change (%, negative = inhibition) at 10uM” value stood at 7.61%.
On to `COC(=O)C1C(c2ccccc2)C=CC(c2ccccc2)C1C(=O)O` (stereo not shown), for which the “hERG current change (%, negative = inhibition) at 10uM” value was determined as 10.2%.
With `CC(O)c1nc2ccccc2n1CCCc1ccccc1` (stereo not shown) the figure was -25.4%.
On to `CCN(c1ccc(OCC(=O)OCC(=O)c2c(N)n(C)c(=O)n(C)c2=O)cc1)S(=O)(=O)c1ccccc1`, for which the “hERG current change (%, negative = inhibition) at 10uM” value is given as -6.28%.
In the case of `COc1ccccc1NC(=S)N(Cc1ccco1)Cc1cc2cc(C)cc(C)c2[nH]c1=O`, the “hERG current change (%, negative = inhibition) at 10uM” value is listed as -9.67%.
With `c1ccc(CN2CCN(Cc3ccc4c(c3)OCCO4)CC2)cc1`, the “hERG current change (%, negative = inhibition) at 10uM” value is -10.6%.
Regarding `Cc1cccc(Nc2nc(N)nc(CN3CCN(c4ccccc4)CC3)n2)c1`, the “hERG current change (%, negative = inhibition) at 10uM” value is recorded as -54.5%.
With `CC(C)(C)N=C1SCC(C)(/C=N/O)S1` (stereo not shown) the figure was 9.63%.
`CCC(=NCc1ccco1)c1c(O)n(C)c(=O)n(C)c1=O`: the “hERG current change (%, negative = inhibition) at 10uM” value came to 19.9%.
On to `O=C(COC(=O)c1ccccc1C(=O)c1ccc(Cl)c([N+](=O)[O-])c1)NC1CC1`, for which the “hERG current change (%, negative = inhibition) at 10uM” value is on record as -3.12%.
Consider `Cc1ccc(OCC(=O)Nc2cc(NC(=O)COc3ccc(C)cc3)cc(C(=O)O)c2)cc1`, for which the “hERG current change (%, negative = inhibition) at 10uM” value came out at 19.8%.
`CN(C)c1ccc(C(C(=O)NC2CCCC2)N(C(=O)c2csnn2)C2CC2)cc1` (stereo not shown): the “hERG current change (%, negative = inhibition) at 10uM” value turned out to be 0.514%.
`CCc1c(O)nc(SCc2ccc(F)cc2)[nH]c1=O`: the “hERG current change (%, negative = inhibition) at 10uM” value is 17.9%.
As for `CC(=O)C1=C(C)NC(=O)NC1c1ccc(OC2CCCC2)cc1` (stereo not shown), the “hERG current change (%, negative = inhibition) at 10uM” value was -3.14%.
As to `CCCCn1c(N)c(N(CCOC)C(=O)C2CCN(C(=O)c3ccc(Cl)cc3)CC2)c(=O)[nH]c1=O`, the “hERG current change (%, negative = inhibition) at 10uM” value worked out at 11.5%.
With `C=CCn1c(C)cc(C(=O)CSc2nnc(-c3cccc(S(=O)(=O)N(CC)CC)c3)o2)c1C` the figure was 1.82%; with `CCOC(=O)C1(S(=O)(=O)c2ccc(Cl)cc2)CCN(Cc2ccc(C)cc2)CC1`, -14.1%; with `COCC1CCN(C(=O)C2CCN(c3nc(-c4ccccc4)nc4c3CCC4)CC2)C1` (stereo not shown), -76.5%.
